Data on 87 compounds can be found in PubChem BioAssay AID463173 (ICCB-Longwood Screening Facility, Harvard Medical School, 2010).

Each structure is given as a SMILES string. Out of some 52,000 compounds screened, about 1,700 (3.3%) were called active. No stated cut-off is given here; in the data, active means survival mostly below about 52% (no sharp cut-off); inactive means mostly above about 56%. This is one part of the list.

For this assay, the system named is Wild type. Kind of assay: growth inhibition of S. aureus wild type versus tarO mutant, primary screen, teichoic acid synthesis inhibitors, RN4220, OD600 (AID 463173). Conditions: S. aureus RN4220 wild type/DeltatarO growth, OD600, 18 h, hits give low values, screened at 18.75 µg/mL (by protocol).
Regarding `Cc1nc(S(=O)(=O)N2CCN(c3ccc(Cl)cc3)CC2)cn1C`, the survival was inactive: 73%.
As for `Cc1nnc(SCc2cc(=O)c3ccccc3[nH]2)s1`, the figure is inactive: 140%; as for `CCOc1ccc(S(=O)(=O)NCCc2csc(-c3ccc(Cl)cc3)n2)cc1`, inactive: 77%; as for `CCCN1CCN(CCCNC(=O)c2cc3c(Cl)nc4ccccc4c3s2)CC1`, inactive: 80%.
To `CCCOc1ccc(NC(=O)CC2C(=O)N(c3ccc(C)cc3)C(=O)N2C(C)C)cc1` (configuration not stated) belongs inactive: 133%; to `CCCOc1ccc(/C=C/C(=O)Nc2sc(C)c(C)c2C(=O)OCC)cc1OC`, inactive: 87%.
As for `CCOc1ccc(CCNC(=O)c2ccc(-c3nc(CSc4ccc(C)cc4)c(C)o3)cc2)cc1`, the figure is inactive: 60%; as for `COc1ccc(OC)c(NC(=O)CCN2CCN(Cc3cccc4ccccc34)CC2)c1`, inactive: 110%; as for `CCN(Cc1nc(-c2cccc(C)c2)no1)S(=O)(=O)c1ccc(C)cc1`, inactive: 74%.
For `O=C(COc1ccccc1)Nc1sc2c(c1C(=O)Nc1ccccc1Cl)CCCCC2`, the survival was inactive: 73%.
To `COC(=O)c1cc(NC(=O)Nc2ccc3snnc3c2)cc(C(=O)OC)c1` belongs inactive: 103%.
With `CC1CCCCN1C(=O)Cn1cc(C(=O)C2CC2)c2ccccc21` (configuration not stated), the survival is inactive: 103%.
In the case of `Cc1cccc(C)c1NC(=O)CN1C(=O)CCSc2ccc(S(=O)(=O)N3CCCC3)cc21`, the survival is inactive: 72%.
As for `Cc1ccc(C)c(N2C(=O)N(Cc3c(F)cccc3Cl)c3ccccc3S2(=O)=O)c1`, the figure is inactive: 85%.
As for `COc1ccc(N(CC(=O)Nc2ccc(C)c(C)c2)S(=O)(=O)c2ccc(C)cc2)cc1OC`, the figure is inactive: 74%; as for `O=C(NCc1cccnc1)c1ccc(NC(=O)c2ccco2)cc1`, inactive: 91%; as for `Cc1ccccc1-c1noc(-c2ccc(N3CCN(c4ccccc4)CC3)c([N+](=O)[O-])c2)n1`, inactive: 83%.
For the compound `CC(=O)OCc1cc(=O)n2nc(C3CCCCC3)sc2n1`, the survival was inactive: 56%.
In the case of `Cc1c(Cl)cccc1-n1ncc(C(=O)N2CCN(C)CC2)c1C1CCN(C(=O)OC(C)(C)C)CC1`, the survival was inactive: 87%.
As for `COc1ccc(S(=O)(=O)n2nc(C)c(S(=O)(=O)N3CCCCC3)c2C)cc1`, the figure is inactive: 63%; as for `CC1CCN(C(=O)c2ccc3c(c2)N(Cc2ccccc2F)C(=O)c2ccccc2S3(=O)=O)CC1`, inactive: 93%; as for `Cc1ccc(NC(=O)C(=O)NCC(c2cccnc2)N2CCOCC2)cc1` (configuration not stated), inactive: 85%.
In the case of `C=C(C)Cn1c(SCC(=O)Nc2ccccc2C)nc2sc3c(c2c1=O)CCCC3`, the survival is inactive: 109%.
As for `COc1ccccc1N1CCN(C(=O)c2cc3c(=O)n(C)c4ccccc4c3s2)CC1`, the figure is inactive: 76%.
To `COc1ccc(CNC(=O)Cn2nc(C)n3cccc3c2=O)cc1` belongs inactive: 88%; to `COc1ccc(-c2nc(SCC(=O)NC3CCCC3)c(-c3ccc(OC)cc3)[nH]2)cc1`, inactive: 89%; to `COc1ccccc1-c1noc(-c2ccc(N3CCOCC3)c([N+](=O)[O-])c2)n1`, inactive: 99%.
As for `COc1ccc(-c2nsc3c(N4CCN(S(=O)(=O)c5cccc(F)c5)CC4)ncnc23)cc1`, the survival is inactive: 104%.
As to `COCCCN(Cc1ccco1)C(=O)c1cc2c(s1)-c1ccccc1OC2`, the survival was active: 12%.
Take `CC(C)Cn1c(=O)c2ccccc2n2c(CCC(=O)N3CCN(c4cccc(Cl)c4)CC3)nnc12`: the survival is inactive: 72%.
As for `CC(=O)c1ccc(N2CCN(c3ncnc4c3c(-c3ccccc3)cn4-c3ccc(C)c(Cl)c3)CC2)cc1`, the figure is inactive: 72%.
To `COc1ccc(C(=O)NCCn2cc(SCc3cccc(F)c3)c3ccccc32)cc1OC` belongs inactive: 68%; to `COc1ccccc1CNC(=O)CN1C(=O)CCc2cc(S(=O)(=O)N3CCCCC3)ccc21`, inactive: 88%; to `O=C(CSc1nc(-c2cccs2)nc2cc(=O)[nH]n12)Nc1ccccc1`, inactive: 89%.
For `CCCN(CCC)CCNC(=O)Cn1cnc2sc(C)c(S(=O)(=O)N3CCC(C)CC3)c2c1=O`, the survival was inactive: 75%.
In the case of `CCOC(=O)C1CCN(c2nc3c(S(=O)(=O)c4ccc(Br)cc4)nnn3c3ccsc23)CC1`, the survival is inactive: 87%.
To `FC(F)(F)c1cccc(-n2cc(-c3ccccc3)c3c(N4CCCCC4)ncnc32)c1` belongs inactive: 68%.
To `COc1ccc(CCNC(=O)Cn2cc(C(=O)c3ccc(Cl)cc3)c(=O)c3ccc(C)nc32)cc1OC` belongs inactive: 127%; to `CCc1ccc(NC(=O)CC(c2cc(OC)c(OC)c(OC)c2)N2Cc3ccccc3C2=O)cc1` (configuration not stated), inactive: 71%.
To `CCOC(=O)c1cccc(NC(=O)Cn2nc3c(cc2=O)CCCC3)c1` belongs inactive: 32%; to `Cn1c(=O)n(C)c2cc(NS(=O)(=O)c3ccc(F)cc3)c(NCc3ccccc3)cc21`, inactive: 72%.
Take `COCCN1C(=O)c2oc3cc(C)cc(C)c3c(=O)c2C1c1cccc(O)c1` (configuration not stated): the survival is inactive: 79%.
As for `COc1ccc(CNC(=O)c2cc3c(-c4ccc(Cl)cc4)nn(C)c3s2)cc1`, the figure is inactive: 123%; as for `COc1ccc(S(=O)(=O)N(CCc2ccccc2)CC(=O)NCc2ccccc2)cc1`, inactive: 89%; as for `Cc1ccc(N2CC(C(=O)NCCS(=O)(=O)N3CCN(c4ccccc4)CC3)CC2=O)cc1` (configuration not stated), inactive: 73%.
Take `Cc1c(C(=O)NC(C)c2ccccc2)sc2ncnc(N(C)C3CCCCC3)c12` (configuration not stated): the survival is inactive: 79%.
For `Cc1ccc(-c2c(CN3CCN(c4cc(C)ccc4C)CC3)csc2C)cc1`, the survival is inactive: 102%.
As for `CCc1c(C)nc2c(C)cccc2c1Cl`, the figure is inactive: 106%.
As for `O=S(=O)(Nc1ccc(-c2ccc(N3CCCCC3)nn2)cc1)c1ccc(OC(F)(F)F)cc1`, the figure is inactive: 72%.
With `CCCn1cc(S(=O)(=O)c2cccc(Cl)c2)c(=O)c2cc(F)c(N3CCOCC3)cc21`, the survival was inactive: 76%.
As for `CCN(CC)C(=O)CSc1nnc2ccc3ccccc3n12`, the figure is inactive: 78%.
Consider `CCc1ccccc1NC(=O)CN1C(=O)CCn2nc(-c3cccn3C)cc21`, for which the survival was inactive: 55%.
As to `Cc1nn(-c2ccc(N3CCCCC3)nn2)c(C)c1CCC(=O)NCc1ccc(F)cc1`, the survival was inactive: 88%.
As for `COc1ccccc1CNC(=O)Cn1cc2c(n1)-c1c(oc(C(=O)N3CCOCC3)c1C)CC2`, the figure is inactive: 84%; as for `COc1ccc(CC(CN)c2ccccc2)cc1` (configuration not stated), inactive: 113%; as for `COC(=O)c1sccc1S(=O)(=O)N(CC(=O)Nc1cccc(C)c1C)c1ccc(C)c(C)c1`, inactive: 69%.
For `COc1cc(OC)c(NC(=O)Cn2ncn3c(cc4cc(C)ccc43)c2=O)cc1Cl`, the survival is inactive: 129%.
On to `Cc1cccc(NC(=O)CSC2=Nc3ccccc3C3=NC(CCC(=O)NCc4ccco4)C(=O)N23)c1` (configuration not stated), for which the survival was inactive: 81%.
Regarding `CN(C)c1ccc(-c2nnc(SCC3CCCO3)n2C)cc1` (configuration not stated), the survival is inactive: 103%.
To `CCc1ccc(-c2cn3nc(CC)sc3n2)cc1` belongs inactive: 72%; to `CCSc1nc2ccccc2c(OCc2ccc(Cl)cc2)c1C(=O)OC`, inactive: 88%; to `COc1ccc2c(c1)c1c(c(=O)n(CCc3ccccc3)c(=O)n1Cc1cccc(F)c1)n2C`, inactive: 63%.
To `CCc1ccccc1NC(=O)c1ccc2c(c1)CCCN2S(C)(=O)=O` belongs inactive: 113%; to `Cc1ccc(-c2onc(C)c2C)cc1S(=O)(=O)Nc1ccccn1`, inactive: 82%; to `COc1ccc2c(C)c(CC(=O)NCc3ccccc3Cl)c(=O)oc2c1OC`, inactive: 97%.
As for `CC(C)CN(CCNC(=O)CCN1N=C(c2ccccc2)CCC1=O)CC(C)C`, the figure is inactive: 82%; as for `C/C(=N\NC(=O)c1ccc(N2CCCC2=O)cc1)c1ccccc1`, inactive: 103%.
As for `CN(C)S(=O)(=O)N1CCC(n2c(C(F)(F)F)nc3cccnc32)CC1`, the survival is inactive: 128%.
As for `COc1ccc(Cn2c(CO)cnc2SCc2ccc(C)cc2)cc1`, the survival was inactive: 133%.
`CC(C)(C)OC(=O)N1CCC(c2c(C(=O)N3CCN(Cc4ccccc4)CC3)cnn2-c2cccc(Cl)c2)CC1`: the survival was inactive: 71%.
As to `COc1ccc(CCNC(=O)CN(c2ccccc2)S(=O)(=O)N(C)C)cc1OC`, the survival was inactive: 83%.
To `COc1ccc(-c2nc3cc(NC(=O)COc4ccccc4C)ccc3o2)cc1` belongs inactive: 86%.
Consider `CC(=O)N1CCC(N(CCCOC(C)C)C(=O)Nc2ccc(C)c(C)c2)CC1`, for which the survival is inactive: 82%.
As for `CCc1cccc(C)c1NC(=O)CSc1nc2ccccc2nc1Cc1ccccc1`, the figure is inactive: 68%.
Take `Cc1ccc(NC(=O)c2oc3ccc(S(=O)(=O)N4CCC5(CC4)OCCO5)cc3c2C)cc1Cl`: the survival is inactive: 120%.
Take `O=C(CN1C(=O)CCSc2ccc(S(=O)(=O)N3CCCC3)cc21)Nc1cccc(F)c1`: the survival was inactive: 59%.
`CCc1c(C)sc2c1CCN(Cc1ccc(C#N)cc1)C2c1ccccc1` (configuration not stated): the survival is inactive: 87%.
As for `CCOC(=O)c1c(NC(=O)c2cc(-c3ccc(OC)c(OC)c3)on2)sc2c1CCCC2`, the figure is inactive: 83%; as for `CCOC(=O)C(C)NC(=O)c1c2c(nc3ccccc13)C(=O)N(C1CCCCC1)C2` (configuration not stated), inactive: 94%; as for `COc1cc(C(c2c(C)[nH][nH]c2=O)c2c(C)[nH][nH]c2=O)ccc1OC(=O)c1ccccc1OC`, inactive: 132%.
For `COC(=O)CC1Oc2ccccc2-n2cc(-c3ccc(F)cc3)nc21` (configuration not stated), the survival is inactive: 79%.
Take `COc1ccc(Nc2nn3c(=O)c4cc5c(cc4nc3s2)OCO5)c(OC)c1`: the survival is inactive: 141%.
As for `Cc1ccc(Cl)cc1-n1nnc(-c2nc(-c3ccc4c(c3)OCO4)no2)c1C`, the figure is inactive: 127%.
As for `Cc1cccc(N(C)S(=O)(=O)c2cc(-c3cnc(C4CC4)o3)ccc2C)c1`, the survival was inactive: 143%.
On to `C=CC[N+]1(CC=C)CCOCC1`, for which the survival is inactive: 104%.
For `O=C(CCNS(=O)(=O)c1ccc2c(c1)CCN2C(=O)C1CC1)N1CCN(c2cccc(Cl)c2)CC1`, the survival is inactive: 127%.
In the case of `CCOc1ccc(/C=C/C(=O)Nc2ccc3nc(N(CC)CC)cc(C)c3c2)cc1OC`, the survival is inactive: 83%.
